# ± gives the standard deviation of the averaged measurements. Whole data set: some 33,000 sequences, median “E-score (dimensionless, -0.5 to 0.5)” near -0.049, cut for the highest 2% near 0.37. This is one part of the list.
# Tested on: T1, PmTbr T-box DNA-binding domain (GST fusion)
# T1 sequence: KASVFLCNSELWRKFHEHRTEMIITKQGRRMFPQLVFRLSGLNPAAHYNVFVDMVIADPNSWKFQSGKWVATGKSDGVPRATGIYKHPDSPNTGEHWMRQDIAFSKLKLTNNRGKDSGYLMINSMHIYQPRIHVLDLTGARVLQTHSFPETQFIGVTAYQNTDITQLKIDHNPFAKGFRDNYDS
# Assay: PBM E-score of 8-mer (E-score (dimensionless, -0.5 to 0.5)); Tbr is Tbrain of the sea star Patiria miniata (Pm) or the sea urchin Strongylocentrotus purpuratus (Sp); higher = stronger binding preference; most listed sequences are background and not binding sites
# Settings: the construct has about 5 more residues each side
# Method in brief: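 Primer extension turned Universal Agilent oligonucleotide arrays double-stranded. They were incubated with 200 nM protein in PBS (pH 7.5); the protein was a GST-fused Tbr T-box DNA-binding domain expressed in BL21 E. coli at 20 °C and purified on glutathione. Every ungapped 8-mer was scored from the scanned, quantified probe intensities, and the Universal PBM Analysis Suite gave each an enrichment E-score averaged over duplicate arrays.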
row,Sequence,PBM E-score of 8-mer
1,AATGCGCC,0.0919 ± 0.1
2,GGAAGGCA,-0.117 ± 0.096
3,CCATTTTA,0.0304 ± 0.031
4,ATTTCTCC,-0.0485 ± 0.011
5,AACTTTCT,0.00835 ± 0.085
6,ATAGTAGC,-0.108 ± 0.061
7,CGGATCGC,-0.0419 ± 0.036
8,GGACGGCA,-0.0763 ± 0.029
9,GTGTGACA,0.4709 ± 0.0035
10,AAGCTGAA,-0.212 ± 0.041
11,ACTTGCCG,0.145 ± 0.015
12,ATCGAGTG,0.167 ± 0.007
13,GGAGCACC,-0.0985 ± 0.042
14,CTGACAAC,0.257 ± 0.012
15,AGTATGGC,-0.0112 ± 0.037
16,AGGTTTCG,-0.0164 ± 0.093
17,ATCAGGAC,-0.317 ± 0.0084
18,ATCGCCGC,-0.0805 ± 0.038
19,GTCCGCGA,0.126 ± 0.042
20,AAGGTGCC,0.405 ± 0.0071
21,ACGGCTTC,-0.09216 ± 0.00057
22,GAGAATGA,-0.0166 ± 0.016

row,Sequence,PBM E-score of 8-mer
1,GTTGATAA,0.0639 ± 0.084
2,GGCCTCCA,-0.268 ± 0.014
3,CGACCACG,0.00422 ± 0.031
4,CTGCAGCC,-0.105 ± 0.016
5,TCTTGTCA,0.207 ± 0.023
6,AACGTCCG,-0.24 ± 0.012
7,GATCACTA,-0.128 ± 0.0032
8,CGATAATA,0.0353 ± 0.00066
9,TAAATTTA,0.0181 ± 0.14
10,CGTCCGTC,-0.149 ± 0.077
11,AGTCCGCA,0.017 ± 0.034
12,CTTCGTCC,0.00228 ± 0.079
13,GAGCGGTA,-0.17 ± 0.035
14,ACAAAAGA,-0.176 ± 0.037
15,TAAAGCGA,0.033 ± 0.058
16,ATGGGTAC,-0.173 ± 0.035
17,CACGATGC,0.116 ± 0.041
18,AACCATCT,-0.158 ± 0.031
19,AGTTTAGG,-0.0822 ± 0.012
20,AATGCAGA,-0.205 ± 0.01
21,CCCCTCGC,-0.0134 ± 0.0076
22,CGTTCGAA,-0.203 ± 0.075

row,Sequence,PBM E-score of 8-mer
1,GCTGATAA,0.0336 ± 0.024
2,GGACTACA,-0.285 ± 0.0066
3,CGGAAAAC,-0.214 ± 0.053
4,CATAGATC,-0.153 ± 0.019
5,TGGTGTAA,0.28 ± 0.011
6,AAACTACG,-0.105 ± 0.073
7,AACTAAAA,-0.0488 ± 0.026
8,CACTCCCA,0.158 ± 0.05
9,CGCATGAG,-0.0134 ± 0.013
10,AACGTATA,-0.0512 ± 0.012
11,ATTCGTCG,0.189 ± 0.02
12,ATTACAAT,-0.283 ± 0.0071
13,ATGGCTGG,-0.125 ± 0.083
14,ACATCCGT,0.0963 ± 0.035
15,CCGGGGTC,-0.0674 ± 0.15
16,ATCAAGGC,-0.141 ± 0.09
17,ACGCAACA,0.199 ± 0.013
18,GATCACCA,0.0245 ± 0.015
19,CTCAGCAC,0.156 ± 0.063
20,CACCAGCA,0.171 ± 0.064
21,AAACGGCC,-0.239 ± 0.026
22,CCTGGAAA,-0.133 ± 0.014

row,Sequence,PBM E-score of 8-mer
1,CGGGTTGA,-0.0346 ± 0.0013
2,TACGCGTA,0.234 ± 0.036
3,GTGGAGAA,0.0155 ± 0.022
4,CCTTCGCA,0.329 ± 0.0034
5,GCTACCTA,0.0587 ± 0.017
6,GTTCCCTA,-0.236 ± 0.019
7,ACTACGAA,-0.0903 ± 0.018
8,GTGATGCA,0.06 ± 0.12
9,GGTGCTCA,-0.112 ± 0.025
10,AATCTAGA,0.187 ± 0.027
11,CGGACCGC,-0.0357 ± 0.066
12,AGAAGCAC,-0.0745 ± 0.019
13,ATCTAACG,0.0772 ± 0.042
14,AGTAGGAC,-0.252 ± 0.017
15,ACGTTAAG,-0.161 ± 0.018
16,ACTGATAG,0.0376 ± 0.032
17,TGCCACCA,0.236 ± 0.018
18,CGGATACC,-0.124 ± 0.0024
19,ACCTAAGC,-0.042 ± 0.037
20,CGTTCTCC,-0.19 ± 0.048
21,AGATCAGA,-0.311 ± 0.016
22,ACGTCCAC,-0.0664 ± 0.037

row,Sequence,PBM E-score of 8-mer
1,AAAGGTAT,-0.0701 ± 0.061
2,AGCAGTCG,0.019 ± 0.038
3,ACCGAAAT,-0.108 ± 0.048
4,AGCCACCC,-0.183 ± 0.038
5,GAACCAAA,-0.198 ± 0.059
6,AGCATAAA,-0.12 ± 0.062
7,CAACTAAG,-0.0704 ± 0.055
8,GCTGCGCC,-0.0388 ± 0.047
9,CAGCTGCA,-0.101 ± 0.06
10,CAAGTCTC,0.172 ± 0.046
11,TTACGTAA,-0.0761 ± 0.031
12,AGCCCTTC,-0.194 ± 0.017
13,TCTGGGCA,-0.0451 ± 0.023
14,ACAAACAG,-0.083 ± 0.0083
15,AGCCGACT,-0.22 ± 0.0026
16,CGCGCCGA,0.21 ± 0.064
17,CCCGGCCA,-0.23 ± 0.025
18,GATAAGAA,0.102 ± 0.13
19,TGAAGACA,0.0807 ± 0.028
20,AGCCGTAC,-0.2803 ± 0.00098
21,CGAGCATC,-0.0802 ± 0.0088
